Assay results reported in PubChem BioAssay AID485294 (National Center for Advancing Translational Sciences (NCATS), 2010).
Screen size: about 370,000 compounds; about 150 (0.041%) were called active. Inconclusive means that the source gave no clear call. Such entries were picked first, then a sample of the others. Calls come from the whole dose curve; as a rule, active = well fitted inhibition curve with a large enough effect; inconclusive = small, poorly fitted or top-dose-only effect; inactive = flat fitted curve, though single readings scatter. Potencies of inconclusive entries are left out as doubtful fits.

target: Beta-lactamase (Escherichia coli (strain K12)) (UniProt P00811); experiment: qHTS Inhibitors of AmpC Beta-Lactamase (assay with detergent); details: AmpC hydrolysis of nitrocefin, absorbance 480 nm, 0.01% Triton; series mostly up to 114 µM; note: nearly all actives have a fitted effect of over 25% in size
In short: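 AmpC (5.3 nM in the dispensed reagent) in 20 mM phosphate pH 7.0 with 0.01% (detergent screen) or 0.0001% Triton X-100 was preincubated with compounds for 15 min at room temperature. Nitrocefin was then added from an 800 uM solution, and hydrolysis was followed at 480 nm.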
Potency is the fitted concentration of half-maximal effect; tags give direction and shape of the fitted curve.

Chain of UniProt P00811 (P00811 whole entry, looked up): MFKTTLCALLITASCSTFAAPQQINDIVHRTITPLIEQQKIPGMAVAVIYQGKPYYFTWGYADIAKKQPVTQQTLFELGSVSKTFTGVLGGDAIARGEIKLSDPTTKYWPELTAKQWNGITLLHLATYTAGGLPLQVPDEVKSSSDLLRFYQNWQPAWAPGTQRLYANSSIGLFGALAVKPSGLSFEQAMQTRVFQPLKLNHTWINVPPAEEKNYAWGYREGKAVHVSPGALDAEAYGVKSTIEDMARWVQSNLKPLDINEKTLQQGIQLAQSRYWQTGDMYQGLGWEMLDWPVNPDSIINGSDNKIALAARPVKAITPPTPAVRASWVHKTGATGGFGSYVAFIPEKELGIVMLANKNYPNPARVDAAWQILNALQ

Row | SMILES | Potency
1 | COC(=O)c1cc(CNC(=O)c2cccc(Cl)c2)ccc1OC | inconclusive [inhibitor, full curve, poor fit]
2 | CCN(CC)CCCNC(=O)c1ccc2c3n(nc2c1)-c1ccc(Cl)cc1CO3 | inactive
3 | Cc1cc(NC(=O)CCN2CCN(Cc3ccccc3)CC2)ccc1Br | inconclusive [inhibitor, full curve, poor fit]
4 | CN1CCN(/N=C/c2ccc(N(c3ccccc3)c3ccccc3)cc2)CC1 | inactive
5 | Cc1c(OCC(=O)N2CCC[C@@H]2C(=O)O)ccc2c3c(c(=O)oc12)CCC3 | inconclusive [inhibitor, full curve, poor fit]
6 | COc1ccc(CNC2CCCCC2C)c(OC)c1 (centres undefined) | inconclusive [inhibitor, full curve]
7 | COc1ccc2[nH]c(=O)c(CN(Cc3cccs3)Cc3nnnn3Cc3ccccc3)cc2c1 | inactive
8 | O=C(Nc1ccc2c(c1)C(=O)NC2=O)c1ccc2ncsc2c1 | inactive
9 | O=C1CC(C(=O)Nc2ccccc2)C2(CCCC2)O1 (centres undefined) | inconclusive [inhibitor, full curve, poor fit]
10 | O=S(=O)(c1ccc2ccccc2c1)N1CCCOC1 | inconclusive [inhibitor, full curve, poor fit]
11 | CC(C)(C)OC(=O)NC1CONC1=O (centres undefined) | inconclusive [inhibitor, partial curve, poor fit]
12 | CCCOc1ccc(C(=O)OCCN(CC)CC)cc1N | inconclusive [inhibitor, full curve, poor fit]
13 | O=C1c2ccccc2C(O)(c2ccccc2)N1CCc1ccccc1 (centres undefined) | inactive
14 | COc1ccc(-c2nsc(SCC(=O)NCc3ccc4c(c3)OCO4)n2)cc1 | inconclusive [inhibitor, full curve]
15 | Cc1ccc(S(=O)(=O)N2CCCC2C(=O)OCc2ccccc2)cc1 (centres undefined) | inconclusive [inhibitor, full curve, poor fit]
16 | CCC(=NCCC(c1ccccc1)c1ccccc1)c1c(O)[nH]c(=O)[nH]c1=O | inconclusive [inhibitor, partial curve, poor fit]
17 | CCCn1c(=N)n(CC(=O)c2cccs2)c2ccccc21 | inconclusive [inhibitor, full curve, poor fit]
18 | CCOc1ccc(NC(=O)CS(=O)CC(=O)NC2CCCc3ccccc32)cc1 (centres undefined) | inconclusive [inhibitor, full curve, poor fit]
19 | O=C(/C=C\c1ccccc1)Nc1nccs1 | inactive
